ChEMBL document CHEMBL4888484, “Replenishing the malaria drug discovery pipeline: Screening and hit evaluation of the MMV Hit Generation Library 1 (HGL1) against asexual blood stage Plasmodium falciparum ,using a nano luciferase reporter read-out” (2022)
Screen size: about 150,000 compounds; about 540 (0.36%) showed an effect of 50% or more. Some of the results follow.

Each molecule was assayed on Plasmodium falciparum (assay: Primary screen in NF54 nanoGlo assay, in single point, at 2uM, 72h; a lower Z score goes with more inhibition). Settings: timepoint 72 hour.
Type: functional, Erythrocyte
In the case of `O=C(CN1CCCC[C@@H]1CN1CCCC1=O)NCC1CCCCC1`, the “% Inhibition” value is reported as 1% and the Z score is reported as -0.05. `CCCN1C(=O)N[C@@H](Cc2ncnn2-c2cccnc2)C1=O` was tested, and the “% Inhibition” value was -6% and the Z score was 0.83. With `CC[C@H](O)Cn1nc(CC(N)=O)nc1-c1ccccc1Oc1ccccc1` the “% Inhibition” value was -6% and the Z score was 1.19. For `CCn1ccc(C(=O)N[C@H]2CCN(Cc3ccccc3)C2)cc1=O`, the “% Inhibition” value was 3% and the Z score was -0.42. With `NC(=O)c1ccc(NCc2ccc(Cn3ccnc3)cc2)nn1` the “% Inhibition” value was -3% and the Z score was 0.26. For `CC(C)N1C[C@@H](C(=O)NC2Cc3ccccc3C2)CC1=O`, the “% Inhibition” value was -16% and the Z score was 1.52. In the case of `Cc1ccc(CC(=O)N2CCC[C@H](N3CCCS3(=O)=O)C2)cn1`, the “% Inhibition” value is reported as -9% and the Z score is reported as 1.26. `CCN(C(=O)c1coc(C)c1)C1CN(C(=O)c2coc(C)c2)C1` was tested, and the “% Inhibition” value was -2% and the Z score was 0.36. In the case of `CCN(CCC#N)C(=O)CCc1ccc(Cl)cc1`, the “% Inhibition” value is reported as -12% and the Z score is reported as 1.58. For `CC[C@H](C)NC(=O)N1CCOc2ccc(CN(CC)CC)cc2C1`, the “% Inhibition” value was -13% and the Z score was 1.43. With `CC(C)Oc1cccc(CC(=O)N(CC#N)CC#N)c1` the “% Inhibition” value was 4% and the Z score was -0.82. For `COc1cccc2c1Oc1ccccc1N=C2N1CCCN(C(=O)CC(C)(C)C)CC1`, the “% Inhibition” value was 4% and the Z score was -0.51. In the case of `Cc1cc(C)n(CCCNCc2cccc(C#N)c2)n1`, the “% Inhibition” value is reported as -2% and the Z score is reported as 0.31. With `Cc1noc(C2CN(C(=O)[C@@H]3CCCN3Cc3ccc(F)cc3)C2)n1` the “% Inhibition” value was -2% and the Z score was 0.22. With `Nc1nc2c(c(N3CCN(Cc4ccco4)[C@@H](CCO)C3)n1)CCNC2` the “% Inhibition” value was -6% and the Z score was 0.56. With `CCOC(=O)Cc1cnc(NC(=O)N2CCOC[C@H]2c2ccnn2C)s1` the “% Inhibition” value was 2% and the Z score was -0.2. `CC(C)N1C[C@@]2(CCCN(c3nc(-c4ccccc4)no3)C2)CCC1=O` was tested, and the “% Inhibition” value was 8% and the Z score was -1.38. With `NS(=O)(=O)c1cccc(NC(=O)N(Cc2cccnc2)C2CCCCC2)c1` the “% Inhibition” value was -4% and the Z score was 0.57. `Cc1cc(=O)c(C(=O)N2CCC(C(=O)Nc3ccc4c(c3)OCO4)CC2)nn1-c1ccccc1` was tested, and the “% Inhibition” value was 21% and the Z score was -2.43. In the case of `C[C@H](NCCc1cnn(C)c1)c1ccc(S(C)(=O)=O)c(F)c1`, the “% Inhibition” value is reported as -9% and the Z score is reported as 1.34. With `COCCN1C(=O)CC[C@]2(CNC(=O)c3cccnc3C)CCC[C@@H]12` the “% Inhibition” value was -12% and the Z score was 1.64. In the case of `CCN(C(C)=O)c1ccc(Oc2nc(OC)cc(OC)n2)cc1`, the “% Inhibition” value is reported as -7% and the Z score is reported as 1.36. With `Cc1n[nH]c(C)c1CCNC(=O)CCC(F)(F)F` the “% Inhibition” value was -9% and the Z score was 0.86. In the case of `COc1ccccc1N1CCN(CC(=O)Nc2nnc(C)s2)C1=O`, the “% Inhibition” value is reported as -1% and the Z score is reported as 0.18.
